Source: the RNAGym collection of RNA variant scans (doi:10.1093/nar/gkz1192)
The source gives no read counts; variants with many changes may rest on few reads.

B1: CPEB3 Ribozyme (parent)
chain: UAACAGGGGGCCACAGCAGAAGCGUUCACGUCGCAGCCCCUGUCAGAUUCUGGUGAAUCUGCGAAUUCUGCUGUAUAUCUC

Variants of: B1
Assay: self-cleavage, relative activity (ratio to wild type); higher = more cleavage; in vitro, sequencing
Outline: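 Libraries of CPEB3 self-cleaving ribozyme mutants came from rounds of error-prone PCR and carried barcodes, which DNA sequencing matched to variants. In vitro transcription used T7 RNA polymerase at 37°C for 5 hours, with a further 15 min in DNase I before EDTA stopped the reaction; the ribozymes cleaved during both steps. The RNA was reverse transcribed with template switching and sequenced on Illumina. Relative activity is the cleaved/total read fraction of a variant divided by that of the unmutated ribozyme, averaged over three batches with at least 5 reads.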

Variant | self-cleavage
G8A A13U A15G A20C A35G A57G U60A | 0.05
G8A A13U A20C A21G U41C U43C | 0.07
G8A A13U C40U U58C A75G | 0.05
G8A A13U G24C G30A U54C U74C A75G | 0.05
G8A A13U U48G A56G U58C A64G | 0.04
G8A A13U U51A U66A U76C | 0.06
G8A A15G A18G U26A U51A U67G U78C | 0.13
G8A A15G A18U A57G | 0.38
G8A A15G A20G | 0.3
G8A A15G A47G U60C | 0.3
G8A A15U A18U U41G U49A A57G U66C | 0.1
G8A A15U A20G G55U G73A | 0.11
G8A A15U A35G | 0.52
G8A A18G A21G | 0.31
G8A A18G A45G | 0.48
G8A A18G G30A G55U U60C | 0.05
G8A A18G U25C U58C | 0.1
G8A A18G U26A U41A A45G U67C U78C | 0.05
G8A A18G U26A U51A A56G U67C U78C | 0.06
G8A A18G U26C A28C U51C A57G U72A | 0.26
G8A A18G U41C | 0.09
G8A A18U A20G A64G | 0.07
G8A A18U A21C U51C U60C U66G U80C | 0.04
G8A A18U G19U A20U C23A U60A | 0.06

Variant | self-cleavage
G8A A18U G63A U66C U74C A77G | 0.04
G8A A18U U26A U54C C59A U72A | 0.04
G8A A18U U31A A47G U67C U69C | 0.05
G8A A20G A77U U80C | 0.09
G8A A20G C27U G53C | 0.04
G8A A20G G22U G30U A45G U76A | 0.04
G8A A20G G24U C37U U51G | 0.05
G8A A20G U25A A65G | 0.05
G8A A20G U25G A35U | 0.04
G8A A20G U25G U48C A56G | 0.07
G8A A20G U26C A45U U51A U67A | 0.05
G8A A20G U26C U69C | 0.17
G8A A20G U41C U48C U58C A65G U72C | 0.05
G8A A20G U48C A65G | 0.11
G8A A20U G52A U67C | 0.06
G8A A20U G63U U67G | 0.04
G8A A20U U31C U49C | 0.05
G8A A21G A35G U41A U60A U72G | 0.06
G8A A21G U69C | 0.24
G8A A21U U48C U51A A57G | 0.08
G8A A28G G33U U60C U69C | 0.11
G8A A28G U76C U80C | 0.26
G8A A28U U41A C44U A45G | 0.06
G8A A28U U41A U66G | 0.05

Variant | self-cleavage
G8A A35G C39A U76C | 0.33
G8A A35G U58C | 0.25
G8A A35G U74C | 0.49
G8A A45G A56G A65U U72A | 0.09
G8A A45G A57G | 0.35
G8A A45G U51C U54C | 0.29
G8A A45U U49C | 0.05
G8A A47G U49G | 0.26
G8A A47U A56G U78C | 0.21
G8A A56U U66C | 0.14
G8A A64G U72G | 0.06
G8A C11A A13G | 0.07
G8A C11A A15U U72C | 0.29
G8A C11U A20G A35U U80A | 0.04
G8A C12A U25C U26A U31C A65C U67G | 0.03
G8A C23A G42C U74C U80A | 0.04
G8A C27G U43C A47G U80C | 0.07
G8A C27U U41A | 0.29
G8A C29A G52U | 0.05
G8A C29G U72C | 0.09
G8A C29U A35U U43C A47G U60A | 0.04
G8A C29U U60A | 0.18
G8A C32G A35G C40A G46U A56G | 0.05
G8A C37U A47G G52U U54C A57C U69G | 0.04

Variant | self-cleavage
G8A C44U G52U A56G U74C U80C | 0.05
G8A G9A A47G A64U U72G | 0.1
G8A G10A A15G A20G A65G U76C | 0.15
G8A G10A A56G U66C U80C | 0.04
G8A G10A U25C U49C U60C U72C U80C | 0.04
G8A G10A U58A U60A | 0.18
G8A G24A U26A A56G | 0.16
G8A G24A U31C A77G | 0.03
G8A G24A U67A U69C U78C | 0.07
G8A G24C U26A A56G A57G U58C A75U | 0.13
G8A G33A C38U U43C A56U A64G U76A | 0.08
G8A G33C G42C U43C U49C G52U | 0.31
G8A U25A A47G A77G | 0.07
G8A U25A C39A A65G | 0.04
G8A U25C C40U U49C U72C | 0.05
G8A U25C U31C C62G | 0.05
G8A U25C U43A U78C | 0.09
G8A U26A C38A A57U G70C | 0.04
G8A U26A G53U | 0.06
G8A U26A U41C U54C A77U | 0.05
G8A U26C A35U C38A U76C | 0.08
G8A U26C C37G A45G | 0.19
G8A U31A G33C A57G U60A | 0.06
G8A U31C U51C | 0.16

Variant | self-cleavage
G8A U31C U66A U69A A77U | 0.03
G8A U31C U67G | 0.08
G8A U31C U69C U72C U78C | 0.05
G8A U41C A56C A64U U66C U80C | 0.07
G8A U41C U49C | 0.21
G8A U41C U67C | 0.17
G8A U43A U78G | 0.26
G8A U43C A45G U66C | 0.08
G8A U43C G46C | 0.19
G8A U48C U78C | 0.32
G8A U49C U54C U67C A77G | 0.12
G8A U51A U80C | 0.09
G8A U51C U60C U72A U74C | 0.06
G8A U54C U60G | 0.05
G8A U54C U67C | 0.11
G8A U54G A75G | 0.05
G8A U58C A64G U69A | 0.06
G8A U66C A75G | 0.04
G8A U66C U72C | 0.07
G8A U69A U78C | 0.07
G8A U69A U80A | 0.24
G8C A15U A35G U54C | 0.25
G8C A15U G36A U41C C50A U60C | 0.06
G8C A18G A35U U78C | 0.05

Variant | self-cleavage
G8C A28G A56G U72G | 0.04
G8C A35G C37G U41C C59A U78C | 0.25
G8C C11G U26C A47G U66C U72G U78C | 0.02
G8C C32U U58C U66C U76A | 0.06
G8C G19A A28G U43C | 0.06
G8C G22U A28U | 0.07
G8C G33A A57U | 0.18
G8C U25A A57G U78C | 0.1
G8C U25A G52U A56U | 0.05
G8C U25A U31C A47G U54A A64U G73U | 0.04
G8C U25A U48C A56G U67C | 0.06
G8C U41C A75U | 0.09
G8C U49C G52A U72A | 0.05
G8U A13G A18U C38A A45G | 0.2
G8U A13G C17U A64G U69A | 0.11
G8U A13G U43C U80C | 0.03
G8U A13U A18U U41A U43C | 0.05
G8U A13U A45G A56C U80C | 0.05
G8U A13U A47G U51C A65G | 0.04
G8U A15G A35G U48C U54C A56U | 0.17
G8U A15G U31A | 0.03
G8U A15U A28C A45G U51C U72C | 0.04
G8U A15U U41C A56G U66C U69C | 0.05
G8U A18G A64G G70C | 0.05

Variant | self-cleavage
G8U A18G U25C U43C | 0.18
G8U A18U A28U C40U U41C | 0.05
G8U A20G A28U U60C | 0.31
G8U A20G U41C A64G A77G | 0.13
G8U A20U A35U A57G | 0.12
G8U A20U A35U U48C C62U | 0.04
G8U A20U U25C A35U A47G U49C U72C | 0.05
G8U A21G C39A A75C U78C | 0.11
G8U A21G U58C | 0.06
G8U A21U A57G U72A | 0.1
G8U A21U U25C | 0.04
G8U A28C A57G | 0.05
G8U A28G A64G | 0.1
G8U A28G G55A | 0.08
G8U A28G U41A A56U A57G U69C | 0.09
G8U A28U C71U | 0.06
G8U A35G U43C U54A | 0.08
G8U A35G U54G A64G G70A | 0.13
G8U A35U A57C U72C | 0.07
G8U A35U U49C A65C U67C | 0.07
G8U A57C U67A C68U U72C | 0.14
G8U A57U C62A U67C | 0.05
G8U A64U U76A | 0.04
